Results reported in patent publication US6482412B1, “Polypeptide having human HIV inhibitory activity, a gene encoding the polypeptide, a method to produce the polypeptide” (Gakkou Houjin Kitasato Gakuen, priority 1999, dated 2002).

Tested on: T-tropic HIV O18A
Test: Anti-HIV activity by MAGI assay, O18A
Type: cell-based
Conditions: read-out: Infection preventive activity (IC50nM)

B1: K97-0003 peptide: polypeptide having the amino acid sequence of SEQ.ID.NO.1, purified from culture fluid of actinomycete strain K97-0003, about 14 KDa (protein)
chain: ASVTIRNAQTGRLLDSNYNGNVYTLPANGGNYQRWTGPGDGTVRNAQTGRCLDSNYDGAVYTLPCNGGSYQKWLFYSNGYIQNVETGRVLDSNYNGNVYTLPANGGNYQKWYTG
modifications: Actinomyces K97-0003 Strain
- IC50: 110 nM
